Data taken from paper PMC3514547 (Biochemistry, 2012).

Legend:
Pot1pN_F88A [1] = molecular target: T1, Pot1pN_F88A (Schizosaccharomyces pombe, UniProt O13988, F88A); experiment: biochemical
Pot1pN_F88A [2] = molecular target: T1, Pot1pN_F88A; settings: ITC
[3] = molecular target: T2, DNA-binding domain of Cdc13 (Saccharomyces cerevisiae, UniProt P32797); experiment: ITC of CR binding to Cdc13-DBD; settings: 2.1 mM CR titrated into 88 μM protein, triplicate
T2 sequence (P32797 500-686 limits assumed): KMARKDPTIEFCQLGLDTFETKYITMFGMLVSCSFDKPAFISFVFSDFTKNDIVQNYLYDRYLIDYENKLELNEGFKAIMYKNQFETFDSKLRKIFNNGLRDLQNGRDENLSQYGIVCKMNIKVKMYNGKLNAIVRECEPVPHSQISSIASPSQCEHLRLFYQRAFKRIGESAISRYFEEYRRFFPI

## Nc1c(/N=N/c2ccc(-c3ccc(/N=N/c4cc(S(=O)(=O)O)c5ccccc5c4N)cc3)cc2)cc(S(=O)(=O)O)c2ccccc12 [CR, Congo red]
Pot1pN_F88A [1]
  Kd: 9.6 ± 0.2 µM
Pot1pN_F88A [2]
  reduction in binding affinity, F88A vs Pot1pN: > 10 fold
  unfavorable change in ΔH, F88A vs Pot1pN: ~ 4 kcal/mol
Pot1pN_F88A [2]; 20 °C, F88A mutant
  ΔH: -6.0 ± 0.1 kcal/mol
[3]
  binding to Cdc13 by ITC: no binding
